{"source": "the BET-seq Pho4 binding data (Le et al. 2018)", "note": "The other results are listed elsewhere or left out. These are noisy estimates, calculated here from bound and input reads.", "data": [{"biological_target": "T1, Pho4 (S. cerevisiae) (UniProt P07270)", "T1 sequence": "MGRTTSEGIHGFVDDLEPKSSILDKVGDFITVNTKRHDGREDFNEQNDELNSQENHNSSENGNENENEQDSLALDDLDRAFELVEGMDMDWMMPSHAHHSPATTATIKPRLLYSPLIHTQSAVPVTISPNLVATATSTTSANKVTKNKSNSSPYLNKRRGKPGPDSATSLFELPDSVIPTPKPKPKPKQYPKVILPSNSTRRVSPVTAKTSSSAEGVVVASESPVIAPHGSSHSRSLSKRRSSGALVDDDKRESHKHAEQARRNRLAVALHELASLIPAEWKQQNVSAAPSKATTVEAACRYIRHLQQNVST", "assay": "relative binding free energy (BET-seq); higher = weaker binding", "details": "reference: library average", "units": {"relative binding free energy": "kcal/mol"}, "values": [{"sequence": "AGTTTCACGTGTATGT", "relative binding free energy": 0.26}, {"sequence": "TGTCGCACGTGGTTGA", "relative binding free energy": -0.05}, {"sequence": "TCTGACACGTGGGTTA", "relative binding free energy": -0.02}, {"sequence": "TAGTCCACGTGTGGGT", "relative binding free energy": -0.12}, {"sequence": "TTTTACACGTGAGGGT", "relative binding free energy": 0.29}, {"sequence": "CGTTTCACGTGCTGGA", "relative binding free energy": 0.3}, {"sequence": "TGGCGCACGTGTCTGG", "relative binding free energy": -0.18}, {"sequence": "TGGGCCACGTGTTGCT", "relative binding free energy": -0.05}, {"sequence": "TAATGCACGTGGGTAA", "relative binding free energy": -0.14}, {"sequence": "ATTTGCACGTGAAGGC", "relative binding free energy": 0.17}, {"sequence": "CGGGGCACGTGTACGG", "relative binding free energy": -0.07}, {"sequence": "CTGGACACGTGTGGAG", "relative binding free energy": 0.14}, {"sequence": "TGGCACACGTGAATGG", "relative binding free energy": 0.23}, {"sequence": "CTCTGCACGTGGTGGT", "relative binding free energy": -0.15}, {"sequence": "TTACGCACGTGCGTTT", "relative binding free energy": -0.03}, {"sequence": "GGTGTCACGTGGGTCA", "relative binding free energy": -0.05}, {"sequence": "ACGGTCACGTGGTAGG", "relative binding free energy": 0.09}, {"sequence": "TAAGTCACGTGAGGCG", "relative binding free energy": 0.3}, {"sequence": "AGTGACACGTGGTAAG", "relative binding free energy": -0.18}, {"sequence": "GAGCACACGTGTAGGG", "relative binding free energy": 0.16}, {"sequence": "TGTAGCACGTGGTGTT", "relative binding free energy": -0.13}, {"sequence": "GTGGCCACGTGGCTGT", "relative binding free energy": -0.2}, {"sequence": "AAAGGCACGTGCGCGG", "relative binding free energy": -0.23}, {"sequence": "TTCTGCACGTGGGGTC", "relative binding free energy": -0.13}, {"sequence": "TGCTACACGTGGTATG", "relative binding free energy": -0.02}, {"sequence": "GACTTCACGTGTTAGG", "relative binding free energy": 0.42}, {"sequence": "TATTGCACGTGGCGGT", "relative binding free energy": -0.2}, {"sequence": "TACGGCACGTGTTTGT", "relative binding free energy": -0.03}, {"sequence": "GGTGACACGTGAGGTT", "relative binding free energy": 0.29}, {"sequence": "TCCATCACGTGTGGGT", "relative binding free energy": 0.29}, {"sequence": "CGTTTCACGTGGGGTT", "relative binding free energy": 0.2}, {"sequence": "GGGGGCACGTGCCGGG", "relative binding free energy": -0.23}, {"sequence": "AAGAGCACGTGAGTAT", "relative binding free energy": 0.18}, {"sequence": "TAGTCCACGTGGTAGG", "relative binding free energy": 0}, {"sequence": "GTATTCACGTGTTGGG", "relative binding free energy": 0.33}, {"sequence": "ATTTCCACGTGTGGTA", "relative binding free energy": 0.15}, {"sequence": "TTAAGCACGTGGGTTC", "relative binding free energy": -0.26}, {"sequence": "ATGGACACGTGCGGGA", "relative binding free energy": -0.04}, {"sequence": "GTGATCACGTGGGGCA", "relative binding free energy": -0.16}, {"sequence": "CTTATCACGTGATTAT", "relative binding free energy": 0.21}, {"sequence": "TATGTCACGTGCTGTC", "relative binding free energy": 0.12}, {"sequence": "CTGTGCACGTGGGCAG", "relative binding free energy": -0.28}, {"sequence": "TATCTCACGTGTGTGG", "relative binding free energy": 0.3}, {"sequence": "TTACTCACGTGGATTG", "relative binding free energy": 0.18}, {"sequence": "ATTAGCACGTGGTGGC", "relative binding free energy": -0.17}, {"sequence": "ATGCTCACGTGTGTGA", "relative binding free energy": -0.01}, {"sequence": "TTGGGCACGTGGCAGT", "relative binding free energy": -0.24}, {"sequence": "TGTTCCACGTGGGCTT", "relative binding free energy": -0.19}, {"sequence": "GGTGACACGTGAATTG", "relative binding free energy": 0.36}, {"sequence": "TTGGCCACGTGGTAAG", "relative binding free energy": -0.13}, {"sequence": "TGAGGCACGTGCGGTT", "relative binding free energy": -0.14}, {"sequence": "CTTTCCACGTGGGGTT", "relative binding free energy": -0.07}, {"sequence": "ATAGACACGTGGTTGA", "relative binding free energy": -0.05}, {"sequence": "GCGTGCACGTGGTACG", "relative binding free energy": -0.09}, {"sequence": "TGAGTCACGTGCGGAA", "relative binding free energy": 0.16}, {"sequence": "CTATACACGTGATTGT", "relative binding free energy": 0.16}, {"sequence": "GGGTGCACGTGAATGA", "relative binding free energy": 0.37}, {"sequence": "TCAATCACGTGGGATT", "relative binding free energy": 0.18}, {"sequence": "TTGCGCACGTGTGCAT", "relative binding free energy": -0.15}, {"sequence": "TTATCCACGTGAAGGT", "relative binding free energy": 0.25}, {"sequence": "TTCATCACGTGGTGAT", "relative binding free energy": -0.04}, {"sequence": "GGTGGCACGTGGAGGA", "relative binding free energy": 0.04}, {"sequence": "CTTGTCACGTGCATTG", "relative binding free energy": 0.14}, {"sequence": "TGTTGCACGTGTTATC", "relative binding free energy": -0.03}, {"sequence": "TGTAACACGTGAGGTC", "relative binding free energy": 0.32}, {"sequence": "TTTGGCACGTGTCTTA", "relative binding free energy": -0.05}, {"sequence": "CGTATCACGTGGGGGT", "relative binding free energy": 0.12}, {"sequence": "ATTCGCACGTGGTTAT", "relative binding free energy": -0.14}, {"sequence": "GAGGGCACGTGGACTG", "relative binding free energy": -0.01}, {"sequence": "GTAAGCACGTGTAAGA", "relative binding free energy": 0.14}, {"sequence": "TGAGTCACGTGGTCTG", "relative binding free energy": 0.11}, {"sequence": "GGATTCACGTGATCGT", "relative binding free energy": 0.35}, {"sequence": "ATATTCACGTGTACAG", "relative binding free energy": 0.32}, {"sequence": "GCGGACACGTGGTTAG", "relative binding free energy": 0}, {"sequence": "TGAGGCACGTGAGGAG", "relative binding free energy": 0.18}, {"sequence": "AGAGGCACGTGGATAA", "relative binding free energy": -0.04}, {"sequence": "CGGCACACGTGAGGGC", "relative binding free energy": 0.38}, {"sequence": "TCCTTCACGTGGAGGG", "relative binding free energy": 0.24}, {"sequence": "TTAGGCACGTGGATGT", "relative binding free energy": -0.23}, {"sequence": "GTACTCACGTGATGTG", "relative binding free energy": 0.37}, {"sequence": "GGTTTCACGTGTTAAG", "relative binding free energy": 0.3}, {"sequence": "TTAGCCACGTGGTAAT", "relative binding free energy": -0.06}, {"sequence": "CGCGTCACGTGTTTTG", "relative binding free energy": 0.12}, {"sequence": "TTAATCACGTGTTCTT", "relative binding free energy": 0.02}, {"sequence": "GTGGTCACGTGGAACG", "relative binding free energy": 0.17}, {"sequence": "TTTGTCACGTGGGTTC", "relative binding free energy": 0.05}, {"sequence": "TGTCTCACGTGGTTGG", "relative binding free energy": 0.23}, {"sequence": "TTTAGCACGTGGAGAA", "relative binding free energy": 0.07}, {"sequence": "ATTGGCACGTGGAGGT", "relative binding free energy": -0.1}, {"sequence": "TGTATCACGTGGAGTG", "relative binding free energy": 0.09}, {"sequence": "GCTTTCACGTGGGGAC", "relative binding free energy": 0.38}, {"sequence": "CGGTGCACGTGGGTCC", "relative binding free energy": -0.08}, {"sequence": "GGTAGCACGTGCGGCT", "relative binding free energy": 0.06}, {"sequence": "TGTCGCACGTGCGGAG", "relative binding free energy": -0.21}, {"sequence": "AGAGTCACGTGGAGGG", "relative binding free energy": 0.04}, {"sequence": "AGTGCCACGTGTAGAG", "relative binding free energy": -0.11}, {"sequence": "CGAATCACGTGGGTGG", "relative binding free energy": 0.08}, {"sequence": "GGGATCACGTGACGTA", "relative binding free energy": 0.45}, {"sequence": "GGTACCACGTGGGGGT", "relative binding free energy": -0.22}, {"sequence": "CATATCACGTGATTTG", "relative binding free energy": 0.19}, {"sequence": "GACGGCACGTGTATGG", "relative binding free energy": -0.19}, {"sequence": "GGAGTCACGTGGCGGA", "relative binding free energy": 0.15}, {"sequence": "GGTGTCACGTGGTGTT", "relative binding free energy": 0.18}, {"sequence": "TAGGGCACGTGTTTGG", "relative binding free energy": 0}, {"sequence": "TCTGACACGTGGGAGG", "relative binding free energy": -0.11}, {"sequence": "TTCGCCACGTGGGGGG", "relative binding free energy": -0.21}, {"sequence": "TGATGCACGTGCCTGG", "relative binding free energy": 0}, {"sequence": "TGAGGCACGTGAGGCT", "relative binding free energy": -0.06}, {"sequence": "AGAATCACGTGTTGGT", "relative binding free energy": 0.14}, {"sequence": "AGGTTCACGTGACTGT", "relative binding free energy": 0.51}, {"sequence": "TTGGTCACGTGGCAAT", "relative binding free energy": 0.12}, {"sequence": "TCATCCACGTGGGGGG", "relative binding free energy": -0.09}, {"sequence": "GTTAGCACGTGTGAGT", "relative binding free energy": -0.02}, {"sequence": "TGTCGCACGTGTGGAG", "relative binding free energy": 0.05}, {"sequence": "AGTAACACGTGAGGAG", "relative binding free energy": 0.06}]}]}
